Laboratory results published in the supplement of paper PMC4967469.
IC50 is the fitted dose that halves viability relative to control wells, and lower means more sensitive; a fit beyond the top or the lowest dose is shown as a bound at that dose. For AUC the same curve is integrated over the 256-fold range of doses and scaled to a fraction; values near 1 show little effect. For part of these data: An inferred top dose comes from the curve model; the source does not state it. For part of these data: Drugs with an entry number were screened twice under separate entries, and the two screens often disagree.

Tests used:
Assay in all cases: Viability of human cancer cell lines after 72 h of drug (GDSC screen)
[1] = compound: CC(=O)c1c(C)c2cnc(Nc3ccc(N4CCNCC4)cn3)nc2n(C2CCCC2)c1=O [PD-0332991]
Protocol: (§1)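 Human cancer cell lines in 384-well plates, medium with 10% serum, drug for 72 h over a 256-fold dose range (nine 2-fold or five 4-fold steps up to the top dose). Adherent lines were fixed and stained with the nucleic acid dye Syto60, suspension lines read with resazurin; signal relative to control wells, capped at 0 and 100%. One two-parameter sigmoid per drug and line, fitted in a mixed model over all curves with the slope shared within a line.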

[2] = compound: COc1cc2c(Nc3ccc(NC(=O)c4ccccc4)cc3)ncnc2cc1OCCCN1CCOCC1 [ZM-447439]; details: top dose inferred
Protocol: as §1

[3] = compound: Cn1cnc2c(F)c(Nc3ccc(Br)cc3Cl)c(C(=O)NOCCO)cc21 [AZD6244]; details: screen: GDSC drug entry 1062
Protocol: as §1

Cell Line | AUC [1] | IC50 [1] [µM] | AUC [2] | IC50 [2] [µM] | AUC [3] | IC50 [3] [µM]
LXF-289 (lung adenocarcinoma, adherent, top dose 4 µM) | 0.745 | 1.24 | 0.795 | 1.82 | 0.976 | > 4
LoVo (large intestine, adherent, top dose 4 µM) | 0.859 | 3.38 | 0.909 | > 4 | 0.706 | 0.957
M059J (glioma, adherent, top dose 4 µM) | 0.985 | > 4 | 0.913 | > 4 | 0.967 | > 4
MC116 (B-cell lymphoma, suspension, top dose 4 µM) | 0.999 | > 4 | 0.999 | > 4 | 0.999 | > 4
MC-CAR (haematopoietic neoplasm, suspension, top dose 4 µM) | 0.818 | 1.95 | 0.828 | 2.12 | 0.905 | > 4
MC-IXC (neuroblastoma, adherent, top dose 4 µM) | 0.996 | > 4 | 0.957 | > 4 | 0.996 | > 4
MDA-MB-157 (breast, adherent, top dose 4 µM) | 0.963 | > 4 | 0.827 | 2.52 | 0.97 | > 4
MDA-MB-330 (breast, adherent, top dose 4 µM) | 0.947 | > 4 | 0.954 | > 4 | 0.954 | > 4
MDA-MB-361 (breast, adherent, top dose 4 µM) | 0.914 | > 4 | 0.958 | > 4 | 0.972 | > 4
MDA-MB-415 (breast, adherent, top dose 4 µM) | 0.948 | > 4 | 0.983 | > 4 | 0.983 | > 4
MDST8 (large intestine, adherent, top dose 4 µM) | 0.906 | > 4 | 0.959 | > 4 | 0.859 | 3.28
ME-1 (acute myeloid leukaemia, suspension, top dose 4 µM) | 0.964 | > 4 | 0.986 | > 4 | 0.958 | > 4
ME-180 (cervix, adherent, top dose 4 µM) | 0.964 | > 4 | 0.924 | > 4 | 0.958 | > 4
MEG-01 (chronic myeloid leukaemia, suspension, top dose 4 µM) | 0.964 | > 4 | 0.892 | > 4 | 0.984 | > 4
MEL-HO (melanoma, adherent, top dose 4 µM) | 0.928 | > 4 | 0.919 | > 4 | 0.421 | 0.151
MEL-JUSO (melanoma, adherent, top dose 4 µM) | 0.66 | 0.737 | 0.911 | > 4 | 0.984 | > 4
MES-SA (uterus, adherent, top dose 4 µM) | 0.966 | > 4 | 0.92 | > 4 | 0.992 | > 4
MFE-280 (endometrium, adherent, top dose 4 µM) | 0.982 | > 4 | 0.982 | > 4 | 0.982 | > 4
MFE-296 (endometrium, adherent, top dose 4 µM) | 0.838 | 2.99 | 0.826 | 2.67 | 0.918 | > 4
MFH-ino (soft tissue, adherent, top dose 4 µM) | 0.777 | 1.89 | 0.949 | > 4 | 0.958 | > 4
MFM-223 (breast, adherent, top dose 4 µM) | 0.86 | 3.3 | 0.985 | > 4 | 0.989 | > 4
MG-63 (osteosarcoma, adherent, top dose 4 µM) | 0.702 | 1.02 | 0.949 | > 4 | 0.883 | > 4
MHH-CALL-2 (B-cell leukaemia, suspension, top dose 4 µM) | 0.996 | > 4 | 0.997 | > 4 | 0.989 | > 4
MHH-ES-1 (Ewing sarcoma, adherent, top dose 4 µM) | 0.595 | 0.454 | 0.788 | 1.73 | 0.986 | > 4
